{
  "source": "paper PMC9911399",
  "about": "“Two distinct binding modes provide the RNA-binding protein RbFox with extraordinary sequence specificity”",
  "binders": {"B1": {"name": "CAGAAGC (DNA:RNA)", "RNA": "GGGAGACCGGAAUUCAGAUUGUCCCAGAAGCUUAAAUCCCGUCGUAGCCACCA", "DNA 1": "CAATCTGAATTCCGGTCTCCC", "DNA 2": "TGGTGGCTACGACGGGATT"}, "B2": {"name": "CAUCUUG (DNA:RNA)", "RNA": "B1 RNA with G27U, A28C, A29U, G30U, C31G", "DNA 1": "CAATCTGAATTCCGGTCTCCC", "DNA 2": "TGGTGGCTACGACGGGATT"}, "B3": {"name": "GGAACCG (DNA:RNA)", "RNA": "B1 RNA with C25G, A26G, G27A, A29C, G30C, C31G", "DNA 1": "CAATCTGAATTCCGGTCTCCC", "DNA 2": "TGGTGGCTACGACGGGATT"}, "B4": {"name": "GUGACAC (DNA:RNA)", "RNA": "B1 RNA with C25G, A26U, A29C, G30A", "DNA 1": "CAATCTGAATTCCGGTCTCCC", "DNA 2": "TGGTGGCTACGACGGGATT"}, "B5": {"name": "CGAAAAC (DNA:RNA)", "RNA": "B1 RNA with A26G, G27A, G30A", "DNA 1": "CAATCTGAATTCCGGTCTCCC", "DNA 2": "TGGTGGCTACGACGGGATT"}, "B6": {"name": "UAUCAGU (DNA:RNA)", "RNA": "B1 RNA with C25U, G27U, A28C, C31U", "DNA 1": "CAATCTGAATTCCGGTCTCCC", "DNA 2": "TGGTGGCTACGACGGGATT"}, "B7": {"name": "AACUCCC (DNA:RNA)", "RNA": "B1 RNA with C25A, G27C, A28U, A29C, G30C", "DNA 1": "CAATCTGAATTCCGGTCTCCC", "DNA 2": "TGGTGGCTACGACGGGATT"}, "B8": {"name": "UUCCCCG (DNA:RNA)", "RNA": "GGGAGACCGGAAUUCAGAUUGUCCUUCCCCGUUAAAUCCCGUCGUAGCCACCA", "DNA 1": "CAATCTGAATTCCGGTCTCCC", "DNA 2": "TGGTGGCTACGACGGGATT"}, "B9": {"name": "UUCGAAA (DNA:RNA)", "RNA": "B8 RNA with C28G, C29A, C30A, G31A", "DNA 1": "CAATCTGAATTCCGGTCTCCC", "DNA 2": "TGGTGGCTACGACGGGATT"}, "B10": {"name": "AUGGCCU (DNA:RNA)", "RNA": "B8 RNA with U25A, C27G, C28G, G31U", "DNA 1": "CAATCTGAATTCCGGTCTCCC", "DNA 2": "TGGTGGCTACGACGGGATT"}, "B11": {"name": "AGAUUCG (DNA:RNA)", "RNA": "B8 RNA with U25A, U26G, C27A, C28U, C29U", "DNA 1": "CAATCTGAATTCCGGTCTCCC", "DNA 2": "TGGTGGCTACGACGGGATT"}, "B12": {"name": "ACCUCUU (DNA:RNA)", "RNA": "B8 RNA with U25A, U26C, C28U, C30U, G31U", "DNA 1": "CAATCTGAATTCCGGTCTCCC", "DNA 2": "TGGTGGCTACGACGGGATT"}, "B13": {"name": "CCCCAGA (DNA:RNA)", "RNA": "B1 RNA with A26C, G27C, A28C, C31A", "DNA 1": "CAATCTGAATTCCGGTCTCCC", "DNA 2": "TGGTGGCTACGACGGGATT"}, "B14": {"name": "GUACGCU (DNA:RNA)", "RNA": "B8 RNA with U25G, C27A, C29G, G31U", "DNA 1": "CAATCTGAATTCCGGTCTCCC", "DNA 2": "TGGTGGCTACGACGGGATT"}, "B15": {"name": "GAUUGCA (DNA:RNA)", "RNA": "B1 RNA with C25G, G27U, A28U, A29G, G30C, C31A", "DNA 1": "CAATCTGAATTCCGGTCTCCC", "DNA 2": "TGGTGGCTACGACGGGATT"}, "B16": {"name": "AAGGCGG (DNA:RNA)", "RNA": "B1 RNA with C25A, A28G, A29C, C31G", "DNA 1": "CAATCTGAATTCCGGTCTCCC", "DNA 2": "TGGTGGCTACGACGGGATT"}, "B17": {"name": "CGGUUGA (DNA:RNA)", "RNA": "B1 RNA with A26G, A28U, A29U, C31A", "DNA 1": "CAATCTGAATTCCGGTCTCCC", "DNA 2": "TGGTGGCTACGACGGGATT"}, "B18": {"name": "CACACCC (DNA:RNA)", "RNA": "B1 RNA with G27C, A29C, G30C", "DNA 1": "CAATCTGAATTCCGGTCTCCC", "DNA 2": "TGGTGGCTACGACGGGATT"}, "B19": {"name": "UAGCUCC (DNA:RNA)", "RNA": "B1 RNA with C25U, A28C, A29U, G30C", "DNA 1": "CAATCTGAATTCCGGTCTCCC", "DNA 2": "TGGTGGCTACGACGGGATT"}, "B20": {"name": "AAAACGG (DNA:RNA)", "RNA": "B1 RNA with C25A, G27A, A29C, C31G", "DNA 1": "CAATCTGAATTCCGGTCTCCC", "DNA 2": "TGGTGGCTACGACGGGATT"}, "B21": {"name": "GAUAACA (DNA:RNA)", "RNA": "B1 RNA with C25G, G27U, G30C, C31A", "DNA 1": "CAATCTGAATTCCGGTCTCCC", "DNA 2": "TGGTGGCTACGACGGGATT"}, "B22": {"name": "AUAUCGU (DNA:RNA)", "RNA": "B8 RNA with U25A, C27A, C28U, C30G, G31U", "DNA 1": "CAATCTGAATTCCGGTCTCCC", "DNA 2": "TGGTGGCTACGACGGGATT"}, "B23": {"name": "CGGAGGA (DNA:RNA)", "RNA": "B1 RNA with A26G, A29G, C31A", "DNA 1": "CAATCTGAATTCCGGTCTCCC", "DNA 2": "TGGTGGCTACGACGGGATT"}, "B24": {"name": "AUUAGCC (DNA:RNA)", "RNA": "B1 RNA with C25A, A26U, G27U, A29G, G30C", "DNA 1": "CAATCTGAATTCCGGTCTCCC", "DNA 2": "TGGTGGCTACGACGGGATT"}, "B25": {"name": "UACUCGU (DNA:RNA)", "RNA": "B8 RNA with U26A, C28U, C30G, G31U", "DNA 1": "CAATCTGAATTCCGGTCTCCC", "DNA 2": "TGGTGGCTACGACGGGATT"}, "B26": {"name": "UACCAUA (DNA:RNA)", "RNA": "B8 RNA with U26A, C29A, C30U, G31A", "DNA 1": "CAATCTGAATTCCGGTCTCCC", "DNA 2": "TGGTGGCTACGACGGGATT"}, "B27": {"name": "GUUAGGU (DNA:RNA)", "RNA": "B1 RNA with C25G, A26U, G27U, A29G, C31U", "DNA 1": "CAATCTGAATTCCGGTCTCCC", "DNA 2": "TGGTGGCTACGACGGGATT"}, "B28": {"name": "UAAAGAA (DNA:RNA)", "RNA": "B1 RNA with C25U, G27A, A29G, G30A, C31A", "DNA 1": "CAATCTGAATTCCGGTCTCCC", "DNA 2": "TGGTGGCTACGACGGGATT"}, "B29": {"name": "AGCGGUU (DNA:RNA)", "RNA": "B8 RNA with U25A, U26G, C28G, C29G, C30U, G31U", "DNA 1": "CAATCTGAATTCCGGTCTCCC", "DNA 2": "TGGTGGCTACGACGGGATT"}, "B30": {"name": "AUUGCCC (DNA:RNA)", "RNA": "B8 RNA with U25A, C27U, C28G, G31C", "DNA 1": "CAATCTGAATTCCGGTCTCCC", "DNA 2": "TGGTGGCTACGACGGGATT"}, "B31": {"name": "GGGCGUA (DNA:RNA)", "RNA": "B1 RNA with C25G, A26G, A28C, A29G, G30U, C31A", "DNA 1": "CAATCTGAATTCCGGTCTCCC", "DNA 2": "TGGTGGCTACGACGGGATT"}},
  "note": "Where a chain is given by its changes, count along the chain named. The list shows a part of the results.",
  "data": [
    {"biological_target": "T1, RBFOX1 RRM RbFoxmut (Fox-RRM*) (Homo sapiens, UniProt Q9NWB1 109-208, R118D;E147R;N151S;E152T)", "T1 sequence": "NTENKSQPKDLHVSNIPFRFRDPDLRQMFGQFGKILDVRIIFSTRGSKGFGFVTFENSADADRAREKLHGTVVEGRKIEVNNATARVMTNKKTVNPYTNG", "assay": "EMSA; HiTS-Eq, 1 nM pool, 10 min; buffer printed only for the single-RNA assays: 10 mM Tris pH 7.5, 150 mM NaCl, 3.4 mM EDTA, 0.001% NP-40, 30 C", "conditions": "tags: His6 N-terminal (pET28a); label: 5' 32P", "procedure,_shortened": "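Purified wild-type or mutant RbFox RRM at increasing concentrations was equilibrated with 1 nM of 5′-radiolabelled RNA carrying 7 randomized nucleotides for 10 min in 50 µL. Unbound RNA was separated by 8% native PAGE and sequenced. Relative association constants came from read-count changes of each RNA species compared with the control reaction, normalised to the cognate motif.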", "values": [
      {"binder": "B1", "binding signal": "0.076 KA relative to UGCAUGU"},
      {"binder": "B2", "binding signal": "0.12 KA relative to UGCAUGU"},
      {"binder": "B3", "binding signal": "0.142 KA relative to UGCAUGU"},
      {"binder": "B4", "binding signal": "0.0549 KA relative to UGCAUGU"},
      {"binder": "B5", "binding signal": "0.0621 KA relative to UGCAUGU"},
      {"binder": "B6", "binding signal": "0.0554 KA relative to UGCAUGU"},
      {"binder": "B7", "binding signal": "0.0421 KA relative to UGCAUGU"},
      {"binder": "B8", "binding signal": "0.084 KA relative to UGCAUGU"},
      {"binder": "B9", "binding signal": "0.082 KA relative to UGCAUGU"},
      {"binder": "B10", "binding signal": "0.103 KA relative to UGCAUGU"},
      {"binder": "B11", "binding signal": "0.137 KA relative to UGCAUGU"},
      {"binder": "B12", "binding signal": "0.0684 KA relative to UGCAUGU"},
      {"binder": "B13", "binding signal": "0.0916 KA relative to UGCAUGU"},
      {"binder": "B14", "binding signal": "0.126 KA relative to UGCAUGU"},
      {"binder": "B15", "binding signal": "0.171 KA relative to UGCAUGU"},
      {"binder": "B16", "binding signal": "0.103 KA relative to UGCAUGU"},
      {"binder": "B17", "binding signal": "0.139 KA relative to UGCAUGU"},
      {"binder": "B18", "binding signal": "0.0762 KA relative to UGCAUGU"},
      {"binder": "B19", "binding signal": "0.0703 KA relative to UGCAUGU"},
      {"binder": "B20", "binding signal": "0.0677 KA relative to UGCAUGU"},
      {"binder": "B21", "binding signal": "0.0446 KA relative to UGCAUGU"},
      {"binder": "B22", "binding signal": "0.122 KA relative to UGCAUGU"},
      {"binder": "B23", "binding signal": "0.0633 KA relative to UGCAUGU"},
      {"binder": "B24", "binding signal": "0.128 KA relative to UGCAUGU"},
      {"binder": "B25", "binding signal": "0.0905 KA relative to UGCAUGU"},
      {"binder": "B26", "binding signal": "0.0926 KA relative to UGCAUGU"},
      {"binder": "B27", "binding signal": "0.0924 KA relative to UGCAUGU"},
      {"binder": "B28", "binding signal": "0.0663 KA relative to UGCAUGU"},
      {"binder": "B29", "binding signal": "0.113 KA relative to UGCAUGU"},
      {"binder": "B30", "binding signal": "0.105 KA relative to UGCAUGU"},
      {"binder": "B31", "binding signal": "0.159 KA relative to UGCAUGU"}
    ]}
  ]
}
